The results in this text go back to the supplement of paper PMC11417369.

± gives the standard deviation of the averaged measurements. This is one part of the list.

The test system of this experiment is PfAP2-I AP2 domain 3 (GST-tagged). The experiment can be described thus: gcPBM binding intensity (ln(normalized median fluorescence intensity)); higher = stronger DNA binding. In outline: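 The highest Masliner-normalised natural-log median intensity across replicate spots of either probe orientation is reported as binding intensity. GST-tagged P. falciparum DNA-binding domains expressed in E. coli were applied for 1 h to an Agilent 4 × 180k array of primer-extended double-stranded 36-bp intergenic genomic probes plus negative controls, and bound protein was detected with Alexa488 anti-GST antibody and scanned at 488 nm.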
With “TAATTGTACACATGCACACACAAATATTATAGATGT [CACACA_site6528]”, the “gcPBM binding intensity (ln)” value worked out at 8.665 ± 0.035.

For “TAAAAATAAATAAATACATGCACCAAAAATAAATTT [TGCATGCA_site801]”, the “gcPBM binding intensity (ln)” value is 9.43 ± 0.17. As for “AAAAAAAAAAAACATACACACACATATATATATATA [CACACA_site8452]”, the “gcPBM binding intensity (ln)” value came out at 9.485 ± 0.064. In the case of “ATTGTTAAATATAATACACACGTTTTTAAAAATATA [CACACA_site5239]”, the “gcPBM binding intensity (ln)” value was 7.8 ± 0.49. With “ATTGCCATTGTTAATGCATGTAACAATTCAGCTCAT [TGCATGCA_site56]”, the “gcPBM binding intensity (ln)” value worked out at 8 ± 0.83. For AAAATTATTTAGTAAGTGCAAAAAAAAAAAAAAAAA, the “gcPBM binding intensity (ln)” value came out at 10.1 ± 0.23. “AATTTGATTATAAATTGTACATATATATATTAAAAG [XGTACX_site5461]”: the “gcPBM binding intensity (ln)” value is 7.95 ± 0.41.

“TTTTTGTAAACCTACTTCATAATTATTTATATCTAT [XGTACX_negctrl_site599]”: the “gcPBM binding intensity (ln)” value turned out to be 7.67 ± 0.87. For “ACATATATTTATATATGTACATATGATATATACATA [XGTACX_site6122]” the value was 8.02 ± 0.092; for “CTTTTGTATATTATATGTACACACAATAAGTTAATA [XGTACX_site1684]”, 7.93 ± 0.32; for “TACATATAAACAATAACACACACCTAGGTACATGGA [CACACA_site8178]”, 7.75 ± 0.57. For the sequence “AATTAACAAAAACACACACACACACCCACAAAAAAA [CACACA_site517]”, the “gcPBM binding intensity (ln)” value is 8.315 ± 0.078. Take “AGGCTATAATACCATACACACATTTATAAAATAACA [CACACA_site6990]”: the “gcPBM binding intensity (ln)” value amounted to 7.86 ± 0.59. On to “TAAAAATTTGATCAAACACACGTTGCATAAATTATA [CACACA_site6040]”, for which the “gcPBM binding intensity (ln)” value stood at 7.98 ± 0.51.

Turning to “TATTTATTAAGACACACACACACACGCACAAAATAA [CACACA_site6254]”, the “gcPBM binding intensity (ln)” value stood at 8.71 ± 0.057. Turning to “AGGGTTCATATATTAACACACACATACATATTATAT [CACACA_site8959]”, the “gcPBM binding intensity (ln)” value came out at 7.9 ± 0.57. Regarding “TATACACATATATATAGTACATATATAATTTACTAT [XGTACX_site1849]”, the “gcPBM binding intensity (ln)” value is 7.64 ± 0.19. In the case of “AGTATTCTAATTTTTAAACACACAAATATAAATAAG [CACACA_site9029]”, the “gcPBM binding intensity (ln)” value stood at 7.92 ± 0.18. Next, “ATATATACCTATATTACACACTTCTTATTCTAAGAA [CACACA_site7421]”: 7.86 ± 0.52; “ATTGTTACATAAAATGCACACTTTCAAATATGCTAA [CACACA_site5600]”: 9.18 ± 0.11. As for “TGAAATTAAATATATACACACATATATATTTATATG [CACACA_site3516]”, the “gcPBM binding intensity (ln)” value came to 7.46 ± 0.35. With “AAACAAAAGGAAAACATATATATATTAAATGTATAT [CACACA_negctrl_site1663]”, the “gcPBM binding intensity (ln)” value was found to be 7.49 ± 0.7. For “ATTTAGAATGTTCCTACACACCAAATTTAAGGGTGC [CACACA_site5320]” the value was 7.73 ± 0.52. On to “TTTTTTTTTCTCCATACACACTTGATAAAACTTTTT [CACACA_site4512]”, for which the “gcPBM binding intensity (ln)” value is 8.04 ± 0.56.

Consider “ATTTATATTCCAATATGTACATATTTTCGTATAACC [XGTACX_site8507]”, for which the “gcPBM binding intensity (ln)” value was determined as 7.95 ± 0.71. For the sequence “ATTACAAATTCTTTCAGTACATATAAAGAAAAAAAT [XGTACX_site7786]”, the “gcPBM binding intensity (ln)” value is 7.87 ± 0.49.

On to “TTAAAAAACATTTGAACATGCAATTGTATATGTAGA [TGCATGCA_site334]”, for which the “gcPBM binding intensity (ln)” value worked out at 7.53 ± 0.64. “ATATTAAAAAGGAAATGTACGTAATGAAGATCAAGT [XGTACX_site3138]”: the “gcPBM binding intensity (ln)” value is 8.73 ± 0.51. Take “TAAATAAAAAGACACACACACATATTTATATTTATA [CACACA_site7135]”: the “gcPBM binding intensity (ln)” value stood at 7.67 ± 0.49.

With “GAGAAAAATATATACACACACATAAATATATACATA [CACACA_site1895]”, the “gcPBM binding intensity (ln)” value is 7.67 ± 0.39.

Consider “TAAATTGGTGCAAAGTGTACATATATATCTTTCCTA [XGTACX_site5458]”, for which the “gcPBM binding intensity (ln)” value turned out to be 10.2. Next, “AAATATCAACTCAAATGTACAAATCACAAAAATGTA [XGTACX_site5344]”: 7.49 ± 0.43; “ATATATGATGTATTTGTGCACATATATATATTATTA [GTGCAC_site9471]”: 10.4 ± 0.11.

“TATACTCATGGACACACACACATACACAGACATACA [CACACA_site5024]”: the “gcPBM binding intensity (ln)” value was determined as 8.07 ± 0.32. Consider “AAACGGGAGAAATAAAAATAAAAATAATAAAACAAA [XGTACX_negctrl_site586]”, for which the “gcPBM binding intensity (ln)” value stood at 7.58 ± 0.55. With “TTCATATATAATTGTACACACAAAAACGACATTGTG [CACACA_site2074]”, the “gcPBM binding intensity (ln)” value was found to be 7.99 ± 0.3.

For “TAAATATGAGGGAACACACACATGATATATAAATTC [CACACA_site2400]”, the “gcPBM binding intensity (ln)” value was 7.83 ± 0.7. Next, “GGAAATAAAATTAAATGTACGAAAACTCATTAAATT [XGTACX_site4274]”: 7.45 ± 0.66; “GTATCAAAAGAATACACACACACATACCTATAAATA [CACACA_site7737]”: 7.76 ± 0.47. Turning to “AAAGGAAAAAAAGTAGCACACAAATATTTATAATAT [CACACA_site8772]”, the “gcPBM binding intensity (ln)” value was determined as 7.88 ± 0.69. As to “TGATATCTTAAGAAATGTACAAAGATATAACCATTT [XGTACX_site1913]”, the “gcPBM binding intensity (ln)” value came to 7.54 ± 0.71. Regarding “ATTTTAATAAAATATGTACACACATACACCCATATA [CACACA_site8326]”, the “gcPBM binding intensity (ln)” value turned out to be 8.15 ± 0.34.

For the sequence “CATACATAAATATAAACATGCATATATTTTTTTTAT [TGCATGCA_site616]”, the “gcPBM binding intensity (ln)” value worked out at 7.79 ± 0.73. Take “TAAATAAAAAAAAATACACACATCTATATAAAATAT [CACACA_site3774]”: the “gcPBM binding intensity (ln)” value came to 7.46 ± 0.7.
